# This is one part of the list. The full chains were built here from the parent and the listed change. Values near 0.05 are background.
# B1: TEV protease; numbered along this chain (parent)
# chain: MGESLFKGPRDYNPISSSICHLTNESDGHTTSLYGIGFGPFIITNKHLFRRNNGTLVVQSLHGVFKVKDTTTLQQHLVDGRDMIIIRMPKDFPPFPQKLKFREPQREERICLVTTNFQTKSMSSMVSDTSCTFPSGDGIFWKHWIQTKDGQCGSPLVSTRDGFIVGIHSASNFTNTNNYFTSVPKNFMELLTNQEAQQWVSGWRLNADSVLWGGHKVFMVKPEEPFQPVKEATQL
# Variants of: B1
# Assay: raw area under fraction-flipped curve 0-4 h after induction (AUC4h, not background-subtracted), DNA-recorder readout of cleavage of the substrate (dimensionless); higher = more cleavage of the substrate by the protease variant
# Conditions: temperature: 34 °C; time window: 0-4 h after rhamnose induction
# Description: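 In vivo DNA recorder in E. coli TOP10(DE3) ΔrhaA at 34 °C. Each TEVp single-site mutant (parent TEVp 0) is paired with a single-site variant of the 7-mer TEVs (canonical ENLYFQ|S). The substrate sits between flexible linkers in a Bxb1-sfGFP-TEVs-SsrA fusion, so cleavage stabilises Bxb1 and speeds flipping of a recombination array, read by NGS. The value is the raw area under the fraction-flipped curve over 0-4 h after rhamnose induction (AUC4h), with ≥20 reads per time point. It is not background-subtracted; inactive controls average about 0.047.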
# 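Note: Bxb1 expression induced with 0.2% (w/v) L-rhamnose at OD600 near 0.5, cultures sampled hourly, flipped fraction per protease–substrate barcode pair counted by paired-end Illumina sequencing.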
Variant,area with substrate ENLAFQS,area with substrate ENLCFQS,area with substrate ENLDFQS,area with substrate ENLEFQS,area with substrate ENLFFQS,area with substrate ENLGFQS,area with substrate ENLHFQS,area with substrate ENLIFQS,area with substrate ENLKFQS,area with substrate ENLMFQS,area with substrate ENLNFQS,area with substrate ENLPFQS,area with substrate ENLQFQS,area with substrate ENLSFQS,area with substrate ENLVFQS,area with substrate ENLWFQS,area with substrate ENLLFQS,area with substrate ENLRFQS,area with substrate ENLTFQS
V220Q,0.07,0.0535,0.0575,0.059,0.0935,0.0857,0.0744,0.0625,0.0722,0.0767,0.0601,0.0503,0.0732,0.0375,0.0816,0.066,–,–,–
K221E,0.0516,–,0.0756,0.0669,0.0763,–,0.0894,0.0794,0.0913,–,0.0656,0.065,0.0734,0.0758,0.0788,–,0.0475,0.088,0.0774
P222W,0.0577,0.0672,0.061,0.0417,0.103,–,0.0651,0.134,0.0673,–,0.0609,0.0404,0.0571,0.0649,–,0.0616,0.0521,0.0654,0.0466
E223Q,0.0658,0.0839,0.0592,0.0535,0.0706,–,–,–,0.0769,0.0822,–,–,0.0778,–,–,–,0.0729,0.0564,–
E224I,0.0665,0.064,0.0706,0.0629,0.0901,–,0.0757,0.0789,0.0852,0.0697,0.0741,0.0613,0.0636,0.0769,–,–,0.0512,0.0716,–
E224L,0.0561,–,0.0585,–,0.0779,–,0.0658,0.0888,–,–,0.0575,0.0654,–,–,–,–,0.0558,0.0718,–
E224Q,0.0904,0.0662,0.0564,0.0533,0.087,0.0661,0.0671,0.0766,0.0732,–,0.07,0.0491,–,0.0682,0.0953,0.0693,0.0925,–,–
F226D,0.0728,–,–,0.0629,0.0954,–,–,–,0.0826,–,0.0612,0.0555,0.0814,–,–,–,0.0768,–,–
E231W,0.0556,–,0.0581,0.0713,0.0809,0.0724,0.0621,0.0748,0.0745,0.0604,0.0559,0.0631,0.0591,0.0557,–,0.0822,0.0688,0.0677,–
A232E,0.0618,0.0691,0.0582,0.0573,–,–,0.0598,0.0556,0.0854,0.0603,0.0667,0.0693,0.0707,0.0528,0.12,0.0901,–,0.0926,–
A232L,0.0612,–,0.0779,–,0.0802,0.0677,–,0.108,0.0744,–,0.087,0.0564,0.0869,0.043,–,0.0743,0.0567,0.0897,–
A232R,0.07,0.0608,–,0.0591,0.0823,–,0.0707,–,0.0945,–,0.052,0.0663,–,0.0641,–,0.0662,0.08,0.0795,–
E3N,–,0.0928,0.0451,–,0.0864,–,–,–,0.0448,–,–,0.0391,0.0798,0.0628,–,–,–,0.0846,–
S4L,–,0.0538,0.0687,0.0572,0.0693,0.071,0.0574,0.0747,0.0706,–,0.0683,0.0583,0.0658,0.0674,0.0682,0.0688,0.0618,0.0738,–
L5M,–,0.104,0.0312,0.0425,0.0965,–,–,0.0948,–,0.0864,0.0685,0.0706,0.0763,–,–,–,–,0.104,–
G8W,–,0.0429,0.0474,–,0.0805,–,0.0663,–,0.064,–,–,–,–,0.0527,–,–,0.0705,0.0818,–
D11E,–,0.0605,0.0598,0.0664,0.102,0.0718,0.0518,–,0.0736,0.0696,0.0653,0.0634,0.0589,0.0622,0.0695,–,0.0836,0.0419,–
Y12V,–,0.0783,0.0622,0.0762,0.0732,–,0.0671,–,0.0777,0.0715,0.058,0.0586,0.0621,0.0593,0.093,0.0647,0.079,0.0635,–
I15L,–,0.0769,0.059,0.0632,0.0843,0.0722,0.0702,0.0761,0.0724,0.0659,0.0642,0.0616,–,0.0611,–,0.0582,0.0638,0.0705,–
S16K,–,0.0849,0.0702,0.0591,0.109,0.06,0.077,0.0659,0.0977,0.0746,0.0715,0.0621,0.0825,0.0518,0.0975,0.0831,0.0938,0.0618,–
S18T,–,0.067,0.0644,0.0743,0.0986,0.0663,–,0.101,–,–,0.0696,–,–,–,–,0.0953,–,0.0268,–
H21T,–,0.0131,0.0603,0.0506,0.0767,–,–,–,0.0698,0.0599,0.0636,–,0.0417,0.0646,0.0699,0.0572,0.0773,0.0628,–
L22G,–,0.0521,0.0452,–,0.0487,–,–,0.0556,0.0482,–,0.0504,0.0349,–,0.0346,–,–,0.0379,–,–
N24F,–,0.0836,0.0715,0.0643,0.0751,0.0855,–,0.0591,0.0743,–,0.0663,0.0616,0.0569,0.0583,0.0677,0.062,–,–,–
G35E,–,0.0625,0.0509,0.0537,0.0367,–,–,–,–,–,0.0482,–,–,–,–,–,–,–,–
G35R,–,0.0423,0.052,0.0439,–,–,–,–,0.0539,–,–,–,–,0.0347,–,0.0434,–,–,–
I36P,–,0.05,0.0468,0.0385,0.043,0.0455,0.0426,–,0.059,0.0524,0.0431,0.0378,0.0438,0.0279,–,0.0391,–,0.0461,–
F41D,–,0.0816,0.0647,0.0532,0.0558,0.0358,0.0612,0.0722,0.0599,0.056,0.0633,0.0367,–,0.0573,0.0541,0.044,–,–,–
